Laboratory results as given in the supplement of paper PMC7125110.
Variants at the background level are over-represented here.

B1: glmS ribozyme (parent)
chain: AUAAAAGCGCCAGAACUACAGAAAUGUAGUUGACGAGGAGGAGGUUUAUCGAAUUUUCGGCGGAUGCCUCCAAA

Legend:
Settings in all cases: with glucosamine-6-phosphate
[1] = variants of: B1; experiment: kcat; higher = faster cleavage; RNA array
How it was run: (§1)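 Barcoded glmS ribozyme variants on sequenced MiSeq chips were transcribed in situ by E. coli RNA polymerase and tracked through a hybridised Cy3 probe at 37 °C. Glucosamine-6-phosphate (40 μM to 10 mM) in HEPES/KCl/Mg(OAc)2 buffer was flowed in, and tiles were imaged over ~14 h. Signals were normalised to baseline and to non-cleaving reference variants; per-tile medians were fit to one- or two-exponential decays to give kobs. kcat and KM came from weighted Michaelis–Menten fits across concentrations.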

[2] = variants of: B1; experiment: self-cleavage kobs at 160 uM GlcN6P; higher = faster cleavage; RNA array
How it was run: as §1

[3] = variants of: B1; experiment: self-cleavage kobs at 2500 uM GlcN6P; higher = faster cleavage; RNA array
How it was run: as §1

[4] = variants of: B1; experiment: self-cleavage kobs at 40 uM GlcN6P; higher = faster cleavage; RNA array
How it was run: as §1

[5] = variants of: B1; experiment: self-cleavage kobs at 640 uM GlcN6P; higher = faster cleavage; RNA array
How it was run: as §1

[6] = variants of: B1; experiment: self-cleavage kobs at 10000 uM GlcN6P; higher = faster cleavage; RNA array
How it was run: as §1

**Q.** Which kcat [1] does the source give for G51A U56A here?
**A.** < 1e-05 s⁻¹

**Q.** And the “self-cleavage kobs at 160 uM GlcN6P” value [2]?
**A.** < 1e-05 s⁻¹

**Q.** What about the “self-cleavage kobs at 2500 uM GlcN6P” value [3] of the same variant?
**A.** < 1e-05 s⁻¹

**Q.** A6U G60C was tested. Which “self-cleavage kobs at 40 uM GlcN6P” value [4] did it give?
**A.** < 1e-05 s⁻¹

**Q.** What about the “self-cleavage kobs at 640 uM GlcN6P” value [5] of the same variant?
**A.** < 1e-05 s⁻¹

**Q.** And the “self-cleavage kobs at 10000 uM GlcN6P” value [6]?
**A.** < 1e-05 s⁻¹

**Q.** For A6G C50U, which “self-cleavage kobs at 40 uM GlcN6P” value [4] is on record?
**A.** < 1e-05 s⁻¹

**Q.** What about the “self-cleavage kobs at 640 uM GlcN6P” value [5] of the same variant?
**A.** < 1e-05 s⁻¹

**Q.** And the “self-cleavage kobs at 160 uM GlcN6P” value [2]?
**A.** < 1e-05 s⁻¹

**Q.** What about the “self-cleavage kobs at 10000 uM GlcN6P” value [6] of the same variant?
**A.** < 1e-05 s⁻¹

**Q.** How did the “self-cleavage kobs at 40 uM GlcN6P” value [4] turn out when A6C C34U was run?
**A.** < 1e-05 s⁻¹

**Q.** For A6C C68A, which “self-cleavage kobs at 40 uM GlcN6P” value [4] is on record?
**A.** < 1e-05 s⁻¹

**Q.** What about the “self-cleavage kobs at 2500 uM GlcN6P” value [3] of the same variant?
**A.** < 1e-05 s⁻¹

**Q.** And the “self-cleavage kobs at 10000 uM GlcN6P” value [6]?
**A.** < 1e-05 s⁻¹

**Q.** With A6U G62U as the variant, how does the “self-cleavage kobs at 40 uM GlcN6P” value [4] read?
**A.** < 1e-05 s⁻¹

**Q.** What about the “self-cleavage kobs at 640 uM GlcN6P” value [5] of the same variant?
**A.** < 1e-05 s⁻¹

**Q.** What about the “self-cleavage kobs at 160 uM GlcN6P” value [2] of the same variant?
**A.** < 1e-05 s⁻¹

**Q.** And the “self-cleavage kobs at 10000 uM GlcN6P” value [6]?
**A.** < 1e-05 s⁻¹

**Q.** Which results are given for A6G G40A?
**A.** self-cleavage kobs at 40 uM GlcN6P [4]: < 1e-05 s⁻¹; self-cleavage kobs at 160 uM GlcN6P [2]: < 1e-05 s⁻¹

**Q.** What does the source list for A6U A33G U45C?
**A.** self-cleavage kobs at 40 uM GlcN6P [4]: < 1e-05 s⁻¹; self-cleavage kobs at 2500 uM GlcN6P [3]: < 1e-05 s⁻¹; self-cleavage kobs at 10000 uM GlcN6P [6]: < 1e-05 s⁻¹

**Q.** With G32C A42C as the variant, how does the kcat [1] read?
**A.** < 1e-05 s⁻¹

**Q.** What about the “self-cleavage kobs at 640 uM GlcN6P” value [5] of the same variant?
**A.** < 1e-05 s⁻¹

**Q.** What about the “self-cleavage kobs at 160 uM GlcN6P” value [2] of the same variant?
**A.** < 1e-05 s⁻¹

**Q.** With A14C C61A as the variant, how does the kcat [1] read?
**A.** < 1e-05 s⁻¹

**Q.** And the “self-cleavage kobs at 40 uM GlcN6P” value [4]?
**A.** < 1e-05 s⁻¹

**Q.** Which “self-cleavage kobs at 40 uM GlcN6P” value [4] does the source give for A6G A14G G38A G63C here?
**A.** < 1e-05 s⁻¹

**Q.** What about the “self-cleavage kobs at 10000 uM GlcN6P” value [6] of the same variant?
**A.** < 1e-05 s⁻¹

**Q.** With A6G A53G C58U as the variant, how does the “self-cleavage kobs at 40 uM GlcN6P” value [4] read?
**A.** < 1e-05 s⁻¹

**Q.** What about the “self-cleavage kobs at 640 uM GlcN6P” value [5] of the same variant?
**A.** < 1e-05 s⁻¹

**Q.** What about the “self-cleavage kobs at 2500 uM GlcN6P” value [3] of the same variant?
**A.** < 1e-05 s⁻¹

**Q.** How did the kcat [1] turn out when G43A U57G was run?
**A.** < 1e-05 s⁻¹

**Q.** And the “self-cleavage kobs at 640 uM GlcN6P” value [5]?
**A.** < 1e-05 s⁻¹

**Q.** How did the kcat [1] turn out when U57G G66C was run?
**A.** < 1e-05 s⁻¹

**Q.** How did the “self-cleavage kobs at 40 uM GlcN6P” value [4] turn out when G7A A12G was run?
**A.** < 1e-05 s⁻¹

**Q.** And the “self-cleavage kobs at 640 uM GlcN6P” value [5]?
**A.** < 1e-05 s⁻¹

**Q.** What about the “self-cleavage kobs at 2500 uM GlcN6P” value [3] of the same variant?
**A.** < 1e-05 s⁻¹

**Q.** And the “self-cleavage kobs at 10000 uM GlcN6P” value [6]?
**A.** < 1e-05 s⁻¹

**Q.** With A6C A14U C16G as the variant, how does the “self-cleavage kobs at 40 uM GlcN6P” value [4] read?
**A.** < 1e-05 s⁻¹

**Q.** How did the kcat [1] turn out when A36G A39C was run?
**A.** < 1e-05 s⁻¹

**Q.** What about the “self-cleavage kobs at 40 uM GlcN6P” value [4] of the same variant?
**A.** < 1e-05 s⁻¹

**Q.** And the “self-cleavage kobs at 640 uM GlcN6P” value [5]?
**A.** < 1e-05 s⁻¹

**Q.** What about the “self-cleavage kobs at 2500 uM GlcN6P” value [3] of the same variant?
**A.** < 1e-05 s⁻¹

**Q.** What about the “self-cleavage kobs at 10000 uM GlcN6P” value [6] of the same variant?
**A.** < 1e-05 s⁻¹

**Q.** Which “self-cleavage kobs at 40 uM GlcN6P” value [4] does the source give for A6C G59U here?
**A.** < 1e-05 s⁻¹

**Q.** What about the “self-cleavage kobs at 160 uM GlcN6P” value [2] of the same variant?
**A.** < 1e-05 s⁻¹

**Q.** And the “self-cleavage kobs at 2500 uM GlcN6P” value [3]?
**A.** < 1e-05 s⁻¹

**Q.** How did the kcat [1] turn out when A36C G51U was run?
**A.** < 1e-05 s⁻¹

**Q.** What about the “self-cleavage kobs at 640 uM GlcN6P” value [5] of the same variant?
**A.** < 1e-05 s⁻¹

**Q.** What about the “self-cleavage kobs at 160 uM GlcN6P” value [2] of the same variant?
**A.** < 1e-05 s⁻¹

**Q.** What about the “self-cleavage kobs at 10000 uM GlcN6P” value [6] of the same variant?
**A.** < 1e-05 s⁻¹

**Q.** For A6G G13C G32U G41U G63U, which “self-cleavage kobs at 40 uM GlcN6P” value [4] is on record?
**A.** < 1e-05 s⁻¹

**Q.** What does the source list for G13U G38A?
**A.** kcat [1]: < 1e-05 s⁻¹; self-cleavage kobs at 2500 uM GlcN6P [3]: < 1e-05 s⁻¹; self-cleavage kobs at 10000 uM GlcN6P [6]: < 1e-05 s⁻¹

**Q.** How did the kcat [1] turn out when G32A A48G was run?
**A.** < 1e-05 s⁻¹

**Q.** What about the “self-cleavage kobs at 640 uM GlcN6P” value [5] of the same variant?
**A.** < 1e-05 s⁻¹

**Q.** For G37U U47C, which kcat [1] is on record?
**A.** < 1e-05 s⁻¹

**Q.** And the “self-cleavage kobs at 160 uM GlcN6P” value [2]?
**A.** < 1e-05 s⁻¹

**Q.** With G32C C61A as the variant, how does the kcat [1] read?
**A.** < 1e-05 s⁻¹

**Q.** What about the “self-cleavage kobs at 160 uM GlcN6P” value [2] of the same variant?
**A.** < 1e-05 s⁻¹
